According to publication PMC12136788:
The list shows a part of the results.

B1: chr6:41757443:41757444:+_ENSG00000214736_ENST00000398881|hu_mus|hu_hu_hu_mus_False|68_68 (ssRNA)
RNA: GGGAGUUCUACAGUCCGACGAUCGAACCGUGCAGAGGCAACAUCUCAGCCGACACUGGGGGAUGGGGGAACAAAAGGGGGGGGUUCAGGCAAGGAGAGGGAGUCAACUUCAGCUGCCACUCAGGUAGGAUCUUGUGGUCACAGCAACAGAGGAUUGAGCAUCA
B2: chr15:83907949:83907950:-_ENSMUSG00000018865_ENSMUST00000082365|mus_hu|FALSE|FALSE (ssRNA)
RNA: GGGAGUUCUACAGUCCGACGAUCCUGUUAUUAUAAAUAAAAGUCAAACGUGAGGUCACACUUUCCCAUCUUCUGUUUAUACACCAAGUCAAACUUCUCAUUCAUGGAGACGGUGAAGAUGUCCUUCCACAGCCCAACUCUUCCCAACAGAGGAUUGAGCAUCA
B3: chr11:77340908:77340909:-_ENSG00000074201_ENST00000525064|hu_hu|hu_hu_hu_mus_True|18_38 (ssRNA)
RNA: GGGAGUUCUACAGUCCGACGAUCGUUUGGAUCCCUGGACACCGCAUGUAAACUAAUGGUGGGGUAUUCCAGUGAGAAUCCUAAUCCCGAACCAUCUAACCAAGACAGGCGGCUCUCAGCGAUGUAAAGCGUGCCGGUGCCGAGCAACAGAGGAUUGAGCAUCA
B4: chr3:149684364:149684365:-_ENSG00000070087_ENST00000239940|hu_hu|FALSE|FALSE (ssRNA)
RNA: GGGAGUUCUACAGUCCGACGAUCUGAGUAUGCCUUCUUAUUCAAUCCGCCUCCAUGGACCCCUUCUUUUCCCAUUACAAAGACCAAGACUCUACCAGCUCUGCCGACAGCCACAUUGUAUGUUGGCUCCCCACCUUGACUCUUCAACAGAGGAUUGAGCAUCA
B5: chr5:128440902:128440903:+_ENSG00000066583_ENST00000173527|hu_mus|hu_hu_hu_mus_True|8_8 (ssRNA)
RNA: GGGAGUUCUACAGUCCGACGAUCUUGAACGGUGCUGCCAAGUCCUUUGGGGUAUUGUUCCGUUAUGAUAACUGGAAUCCCUAAGAUCCGAGCUCCUUGCAACAGUCUCUGUCCCACACUAAUGAUGUCCCCAAAAUAUUUGAUCAACAGAGGAUUGAGCAUCA
B6: 33852131_33852251_8664_3pUTR_ENSMUSG00000042197_ENSMUST00000044455|mouse|control|control (ssRNA)
RNA: GGGAGUUCUACAGUCCGACGAUCCCGUCUCAAAACAAACAAACAAAACAAAACAAAAAAAGGUAUGGGCCACCACACCUAGCUAGCAAUCAAAUCUUUUUUCAAACAAGACUUAGAAUGCCAGCACUUGAAGCAGCAGGACUCCAACAGAGGAUUGAGCAUCA
B7: chr2:91395433:91395434:+_ENSMUSG00000040549_ENSMUST00000099716|mus_mus|FALSE|FALSE (ssRNA)
RNA: GGGAGUUCUACAGUCCGACGAUCUGGCUUAAGUGAGAUGAUUUUGGAACCAAAUUCACUUAAGGCUUUCCUCAGUGUUUCUAUACAGGCCACUAUGAUCUUGGGGUUCUUGUUAUCCAGGCCCUUCAGAAGCUCUUCUUGUACCAACAGAGGAUUGAGCAUCA
B8: 107366858_107366978_2518_3pUTR_ENSG00000151135_ENST00000280756|human|control|control (ssRNA)
RNA: GGGAGUUCUACAGUCCGACGAUCGAAAUACCUUAAAUCAUACUGCAUGAAAUAAAUGACCAUUUAAUUCCUGAUUAGUUGAACUCCUUAAUGACUUUUCAGUUUUGUAUAUAAUAGAAAGGUUCAAGAACCUUUGUAGAUUUGCAACAGAGGAUUGAGCAUCA
B9: chr7:151048522:151048523:+_ENSG00000013374_ENST00000566856|hu_mus|hu_hu_hu_mus_True|98_108 (ssRNA)
RNA: GGGAGUUCUACAGUCCGACGAUCCUGCUUCUUAUUUAUGACAAUUUUGAUGUAAUUUUCUUGAAAUCCGAAAGUUUCAGCUAUUUGACACCUCAGGUCUCUACCAGUGACAUGCAAGCGGGUCUCCAACAAGCUUUUCUUAUCCAACAGAGGAUUGAGCAUCA
B10: chr11:74329583:74329584:+_ENSG00000077514_ENST00000263681|hu_mus|FALSE|FALSE (ssRNA)
RNA: GGGAGUUCUACAGUCCGACGAUCGGAAGAUGGGGAUUCUGCAGGAGCUCUGGGGACUGCAGCUGCACACUGUAUGGCACUAAACUUGCUGCAGUUCUGCAAAUUGCUUUUAAGGAUGUCAUAGUCGGUAUUGAACAGAGGCCCCAACAGAGGAUUGAGCAUCA
B11: chr21:30434530:30434531:-_ENSG00000156261_ENST00000286788|hu_hu|FALSE|FALSE (ssRNA)
RNA: GGGAGUUCUACAGUCCGACGAUCAUCGUCUACUGCCCUUUCUAUGUCAUCCAUCAGAUUGUCUGUAGAGCCUCGAAGUACUAUGGUAGAAAUGGCGCCAUCUUCCUUUUCAUGCUUAAAAACCACCACCUGAGUAUCUCCAACCAACAGAGGAUUGAGCAUCA
B12: 125398164_125398284_160_CDS_ENSG00000150991_ENST00000546120|human|control|control (ssRNA)
RNA: GGGAGUUCUACAGUCCGACGAUCUUCCAGCUGUUUUCCAGCAAAGAUCAGCCUCUGCUGGUCAGGAGGGAUGCCUUCCUUAUCUUGGAUCUUUGCCUUGACAUUCUCGAUGGUGUCACUGGGCUCAACCUCGAGGGUGAUGGUCAACAGAGGAUUGAGCAUCA
B13: 65185493_65185613_980_3pUTR_ENSMUSG00000027828_ENSMUST00000029414|mouse|control|control (ssRNA)
RNA: GGGAGUUCUACAGUCCGACGAUCCGAAAAGUUGUAAUAUUGUGCUUGGAACACAGAGAACCAGUUAUUAACUUCUUCCUCCUAUUAUAAAUAAUAACAGCUCAGUCCAGGUUACCAUGACCUCUGACAGAUGUAGGAAACAAGCAACAGAGGAUUGAGCAUCA
B14: chr7:7679991:7679992:-_ENSG00000106399_ENST00000396682|hu_hu|hu_hu_hu_mus_False|38_98 (ssRNA)
RNA: GGGAGUUCUACAGUCCGACGAUCUGGGAUGAAUCUUUUCCAGCCUCCCCACGAAGCACACGGGCCGGUCGAUAUACUGUGGUAACAUGCUGGCGUUGAUGCGCGACUUGGGGAGCUGCAUUAUGUCCUCCAUGAUUCUGCCGCCAACAGAGGAUUGAGCAUCA

The binders below were run against T1, UNK ZnF1-3 (human, UniProt Q9C0B0 31-174) (assay: nsRBNS (natural sequence RNA bind-n-seq); RBNS binding buffer (assumed for nsRBNS): 25 mM Tris pH 7.5, 150 mM KCl, 3 mM MgCl2, 0.01% Triton X-100, 500 ug/ml BSA, 20 U/ml SUPERase-In, 4 C; UNK is unkempt and MSI1 is Musashi-1; names of the RNAs are library labels; protein concentration not given here; high values mean tight binding).
T1 sequence: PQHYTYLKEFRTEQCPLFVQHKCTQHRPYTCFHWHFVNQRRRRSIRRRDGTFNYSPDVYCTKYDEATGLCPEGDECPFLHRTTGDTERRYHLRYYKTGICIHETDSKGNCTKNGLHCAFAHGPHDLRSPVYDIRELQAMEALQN
For B1, the binding signal was 2.85 enrichment R. In the case of B2, the binding signal is reported as 1 enrichment R. For B3, the binding signal was 0.956 enrichment R. B4 gave a binding signal of 0.77 enrichment R. Binder B5 has a binding signal of 0.786 enrichment R. Work on B6 yielded a binding signal of 2.11 enrichment R. For B7, the binding signal was 0.563 enrichment R. Work on B8 yielded a binding signal of 0.507 enrichment R. B9 was tested, and the binding signal was 0.812 enrichment R. B10 was tested, and the binding signal was 0.98 enrichment R. With B11 the binding signal was 1.26 enrichment R. In the case of B12, the binding signal is reported as 0.589 enrichment R. With B13 the binding signal was 1.16 enrichment R. B14 gave a binding signal of 0.453 enrichment R.
